# Measurements taken from PMC4336329 (PLoS ONE, 2015).
# Hit rate of the full screen: of about 310,000 compounds, about 14,000 (4.5%) showed an effect of 50% or more. Effects have a minus sign here. This is one part of the list.
# Target: human ether-à-go-go-related gene (hERG) potassium channel (human, UniProt Q12809)
# Test: primary screen, population patch clamp on CHO cells stably expressing hERG
# 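Note: peak tail current of the secondary pulse compared with the same well before compound.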
# Sequence of human ether-à-go-go-related gene (hERG) potassium channel (Q12809 whole entry, looked up): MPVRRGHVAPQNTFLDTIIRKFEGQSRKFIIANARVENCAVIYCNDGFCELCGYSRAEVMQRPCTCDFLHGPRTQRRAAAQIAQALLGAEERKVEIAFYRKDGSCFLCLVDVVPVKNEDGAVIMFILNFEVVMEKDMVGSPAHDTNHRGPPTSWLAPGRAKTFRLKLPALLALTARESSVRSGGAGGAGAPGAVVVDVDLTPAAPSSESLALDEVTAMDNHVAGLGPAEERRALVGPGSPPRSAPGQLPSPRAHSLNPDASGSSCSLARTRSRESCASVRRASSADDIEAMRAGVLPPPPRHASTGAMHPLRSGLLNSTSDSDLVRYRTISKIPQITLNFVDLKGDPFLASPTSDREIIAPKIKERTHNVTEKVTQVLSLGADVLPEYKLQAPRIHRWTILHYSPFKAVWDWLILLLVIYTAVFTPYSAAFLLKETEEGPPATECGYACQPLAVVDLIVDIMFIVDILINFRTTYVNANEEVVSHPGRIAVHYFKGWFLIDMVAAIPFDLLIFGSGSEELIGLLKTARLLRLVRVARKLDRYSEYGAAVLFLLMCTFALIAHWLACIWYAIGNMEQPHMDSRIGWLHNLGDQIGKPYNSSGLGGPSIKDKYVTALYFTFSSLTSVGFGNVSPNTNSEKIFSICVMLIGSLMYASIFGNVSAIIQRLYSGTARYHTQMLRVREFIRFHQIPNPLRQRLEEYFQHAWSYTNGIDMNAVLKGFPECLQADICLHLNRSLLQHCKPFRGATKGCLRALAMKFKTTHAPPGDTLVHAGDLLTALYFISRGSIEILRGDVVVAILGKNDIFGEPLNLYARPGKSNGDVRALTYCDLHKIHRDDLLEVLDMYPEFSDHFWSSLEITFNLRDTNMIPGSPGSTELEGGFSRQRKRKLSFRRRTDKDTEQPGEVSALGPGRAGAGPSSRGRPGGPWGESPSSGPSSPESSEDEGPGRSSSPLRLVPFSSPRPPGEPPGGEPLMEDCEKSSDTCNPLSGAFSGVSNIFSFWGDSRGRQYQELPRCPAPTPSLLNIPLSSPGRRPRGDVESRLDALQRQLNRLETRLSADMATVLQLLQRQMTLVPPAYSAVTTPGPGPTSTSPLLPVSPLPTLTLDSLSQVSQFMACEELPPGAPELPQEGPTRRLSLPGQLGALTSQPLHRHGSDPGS
row,Compound,"hERG current change (%, negative = inhibition) at 10uM [%]"
1,Cc1cc(OCC(=O)Nc2ccccn2)c2c(C)cc(=O)oc2c1,10.5
2,O=C(CCSc1nc2ccccc2o1)N1CCOCC1,3.17
3,O=C(CC(c1ccccc1)c1ccccc1)Nc1ccc(O)cc1,11.5
4,O=C(COc1cccc2ccccc12)NNC(=O)[C@@H]1CCCC[C@@H]1C(=O)O,19.1
5,N#CC1=C(N)OC2=C(C(=O)CCC2)C1c1ccncc1 (centres unmarked),3.89
6,CCOC(=O)C(Cc1ccccc1)C(=O)Nc1ccc(N(CC)CC)cc1 (centres unmarked),2.88
7,CCCN=Cc1ccc(O)cc1,13.7
8,CC(OC(=O)C1CC(=O)N(Cc2ccccc2)C1)C(=O)Nc1ccccc1[N+](=O)[O-] (centres unmarked),-20
9,CCOC(=O)N1CCC(N2Cc3cccc(C(=O)N4CC(C)CC(C)C4)c3C2=O)CC1 (centres unmarked),6.31
10,O=C(CSCc1ccccc1)N1CCN(c2ccc(F)cc2)CC1,-16.1
11,CCn1c(C(C)NC(=O)c2ccccc2C)n[nH]c1=S (centres unmarked),10.8
12,CCCCCCSc1nc(O)c(C2OC(=O)c3c2ccc(OC)c3OC)c(=O)n1-c1ccccc1 (centres unmarked),16.8
13,O=C(Nc1sc2c(c1C(=O)NC1CC1)CCCCCC2)c1ccco1,-9.32
14,Cc1cccc(C)c1NC(=O)C(c1cccs1)N(Cc1ccco1)C(=O)Cn1nnc2ccccc21 (centres unmarked),14.4
15,Cc1cc(NC(=O)c2cccc(S(=O)(=O)N3CCCCCC3)c2)no1,11.7
16,CC(=O)Nc1ccc(C(=O)N/N=C/c2ccncc2)cc1,0.536
17,COc1ccc(-n2c(SCC(=O)NCC3CCCO3)nc3c(c2=O)SC(C)C3)cc1 (centres unmarked),-25.9
18,O=C1OCCC1Sc1nc2ccccc2c(=O)n1-c1ccc(F)cc1 (centres unmarked),8.7
19,O=C(NCCN1CCCCC1)c1cc(OCC(F)(F)F)ccc1OCC(F)(F)F,-39.5
20,Cc1ccc(/C=C(\NC(=O)c2ccccc2)C(=O)NCC2CCCO2)o1 (centres unmarked),-5.4
21,COC(=O)C1C(O)=C(C=Nc2cccc3ccccc23)C(=O)CC1(C)C (centres unmarked),-2.34
22,Cc1nn(-c2ccccc2)c(C)c1/C=C/C(=O)OCC(=O)N(C)C1CCS(=O)(=O)C1 (centres unmarked),4.46
23,CC(C)(O)C(=O)NNC(=S)Nc1cccc(C(F)(F)F)c1,19.7

row,Compound,"hERG current change (%, negative = inhibition) at 10uM [%]"
1,COc1ccc(CCNC(=O)CCCn2nc(C)n3ccnc3c2=O)cc1OC,-14.2
2,CCC(C)N(C(=O)COC(=O)c1ccc(=O)n(Cc2ccccc2)n1)C1CCS(=O)(=O)C1 (centres unmarked),-24.3
3,Nc1nc(CSc2ncccn2)nc(Nc2ccccc2)n1,1.55
4,COc1cccc(CNC(=O)Cc2nc3nc(C)cc(C)n3n2)c1,-3.48
5,O=C1OCCC1Sc1ncnc2sccc12 (centres unmarked),-14.2
6,CCOC(=O)C1=NN(c2ccccc2)C2=NC(C)=C(C(=O)OC)C(c3cccs3)N12 (centres unmarked),-5.66
7,Cc1cc(C)cc(C(=O)NC(=S)Nc2ccc3[nH]c(=O)[nH]c3c2)c1,7.87
8,CC(Cl)C(=O)Nc1c2c(nn1-c1ccccc1)CSC2 (centres unmarked),1.56
9,COc1ccc(CCNC(=O)C2CCN(C(=O)c3ccc(OC)c(OC)c3)CC2)cc1,4.54
10,Cc1cc(=O)oc2cc(OCC(=O)N3CCc4ccccc4C3)ccc12,-24.5
11,O=C([C@H](O)c1ccccc1)N1CCC[C@H]1CO,8.33
12,COC(=O)CSC1=NN1c1cc(C)nc(N)n1,-4.21
13,COc1ccc(S(=O)(=O)Nc2cccnc2)c(Cl)c1Cl,2.65
14,CC1(C2CC2)NC(=O)N(CC(=O)Nc2ccccc2-c2ccccc2)C1=O (centres unmarked),22.5
15,CC(C)CN(C(=O)c1cc(Cl)nc2ccccc12)c1c(N)n(Cc2ccccc2)c(=O)[nH]c1=O,5.45
16,CCOc1cccc(/C=N/N2C(C)CCCC2C)c1O (centres unmarked),10.9
17,O=C(N/N=C\c1cn[nH]c1-c1ccccc1)c1cccnc1,-1.27
18,O=C1CNC(c2ccccc2Cl)c2cc(Br)ccc2N1 (centres unmarked),11.5
19,COc1cc(Cl)c(C)cc1NC(=O)COc1cc(C)nc(C(C)C)n1,4.03
20,CCCCOCCCNC(=O)N[C@@H](CC(C)C)C(=O)O,8.87
21,CC1Cc2ccccc2N1S(=O)(=O)c1cccc(C(=O)Nc2cccnc2)c1 (centres unmarked),-60.2
22,O=C(CSc1nccn1-c1ccc(F)cc1)NCc1ccc2c(c1)OCO2,-13.1
23,O=C(CSc1n[nH]c(-c2ccncc2)n1)Nc1ccccc1Cl,9.56

row,Compound,"hERG current change (%, negative = inhibition) at 10uM [%]"
1,CCN(CC)CCOC(=O)C(Cc1ccco1)Cc1cccc2ccccc12.O=C(O)C(=O)O (centres unmarked),-76.8
2,Cc1cc(C)nc(SCc2cn3c(C)cccc3n2)n1,6.36
3,CC(C(=O)Nc1ccc(Br)cc1C(=O)c1ccccc1)N1CCCCC1 (centres unmarked),-24.8
4,COc1ccc2nc(Nc3nc(CSc4nnc(C)s4)cc(=O)[nH]3)nc(C)c2c1,-1.31
5,Cc1ccccc1N1C(=O)C(Cl)=C(N2CCN(c3ccccc3)CC2)C1=O,3.27
6,BrCC(Br)(Br)Br,11
7,COc1ccc(NC2CCCN(C(=O)CCn3cccn3)C2)cc1 (centres unmarked),8.98
8,COC(=O)c1ccc(C(=O)Nc2ccc(C(C)C)cc2N)cc1,22.2
9,COc1cccc2c(SCC(=O)N/N=C/c3ccccc3)cc(C)nc12,0.116
10,COc1cc(C(=O)NCCC(=O)N2CCCCC2)cc(OC)c1OC,22.3
11,Cc1ccc(CCNC(=O)CCS(=O)(=O)c2ccc3nc(C)sc3c2)cc1,1.44
12,Cc1ccc(-n2ncc3c2CC(C)(C)CC3NC(=O)c2c(C)noc2C)cc1 (centres unmarked),-14.7
13,COc1ccc(/C=N/Nc2nc(Nc3ccccc3)nc(N3CCCCC3)n2)c(OC)c1,7.24
14,Cc1cc(NC(=O)Nc2ccccc2F)ccc1Br,15.7
15,CN(C1CCCCC1)S(=O)(=O)c1ccc(C(=O)N2CCN(c3nc4ccccc4s3)CC2)cc1,17.6
16,O=C(CSc1ccc(-c2ccccn2)nn1)NC1CCCCC1,-14
17,CCc1ccc(OCC(=O)Nc2ccc(S(=O)(=O)N3CCOCC3)cc2)cc1,-6.92
18,O=C(O)c1ccc2c(c1)N(Cc1ccccc1)C(=O)c1ccccc1S2=O (centres unmarked),21.1
19,Cc1[nH]c2ccccc2c1C(=O)C(=O)N1CC(C)OC(C)C1 (centres unmarked),15.8
20,Cc1cccc(OC(=O)CCN2C(=O)C3C4C=CC(C5CC45)C3C2=O)c1C (centres unmarked),-0.833
21,O=C(CN1CCCCCCC1)NC(=O)NC1CCCCC1,6.71
22,CN1CCc2nc3ccccc3c(C(=O)OCC(=O)N(CCC#N)c3ccccc3)c2C1,-9.44
23,O=C(N/N=C/c1sc2ccccc2c1O)c1cccc2ccccc12,-5.97

row,Compound,"hERG current change (%, negative = inhibition) at 10uM [%]"
1,Cc1ccc(S(=O)(=O)/N=C2/NC(=O)/C(=C/c3ccncc3)S2)cc1,24
2,COc1cc2c(cc1OC)CN(c1nc(CN3CCCC3)nc3sc(C)c(C)c13)CC2,-75.6
3,COc1ccc(CCN(Cc2ccccn2)C(=S)Nc2ccccc2Cl)cc1OC,-12
4,CC(C)C(=O)NC(=S)NCC(=O)c1ccccc1,-17.3
5,CCc1ccc(NC(=O)CCc2ccc(CC)o2)cc1,-4.1
6,COc1cc(CO)c(Br)cc1OCC(N)=O,10.7
7,Cc1noc(C)c1COC(=O)c1ccccc1NC(=O)c1ccco1,-26.4
8,COc1ccccc1NC(=O)C1CCCN(C(=O)Nc2ccc(F)cc2)C1 (centres unmarked),-5.46
9,Cc1cc(Cl)c(OCCN2C(=O)NC(C)(C)C2=O)c(Br)c1,-4.37
10,CCOC(=O)C1=C(C)C(c2ccc(OC)cc2)NC(=S)N1 (centres unmarked),1.73
11,Cc1ccc2sc(N(CCCN(C)C)C(=O)c3ccc(S(=O)(=O)N4CCc5ccccc5C4)cc3)nc2c1C.Cl,13.6
12,Cc1c(NC(=O)C(C)OC(=O)c2cccc([N+](=O)[O-])c2)c(=O)n(-c2ccccc2)n1C (centres unmarked),-15.5
13,Cc1ccc(NS(=O)(=O)c2cccc(C(=O)NN3CCOCC3)c2)cc1,0.89
14,CS(=O)(=O)N1CCC(C(=O)Nc2ccc(C(F)(F)F)cc2)CC1,12.4
15,Cc1ccc(C(=O)NC2c3ccccc3-c3ccccc32)cc1,11.9
16,CCOc1ccc(-c2cccc(NC(=O)COc3ccccc3)c2)nn1,-8.09
17,CCCN1Cc2cccc(C(=O)NCCCOC(C)C)c2C1=O,2.91
18,COc1ccc(/C=N/NC(=O)C(=O)N2CCCC2)cc1OC,-0.229
19,O=C(CSc1nc2sc3c(c2c(=O)n1-c1ccccc1)CCCC3)NCc1ccco1,14.9
20,Cc1ccc(OCC(=O)N2CCCCCCC2)cc1,7.87
